Counter-ions that a name gives are not always drawn. ± gives the standard deviation of the averaged measurements. The full ranking holds about 1,900 compounds; the median of “normalised cell viability (NPI; 0 = phenylarsine oxide control, 1 = DMSO control)” is about 1, and the lowest 2% start at about 0.039. Some of the results follow.

The values that follow come from the supplement of paper PMC8285479.

The test relates to NCI-H1944. In words: normalised cell viability (NPI; 0 = phenylarsine oxide control, 1 = DMSO control) (fraction of DMSO control); NCI-H1944 is a non-small cell lung cancer line; higher = more viable cells (less compound toxicity). The conditions noted are these: 6 days.
Setting [1] is: glucocorticoid arm: hydrocortisone 2.75 uM co-treatment, compound 1 µM.
The mark [2] stands for this setting: glucocorticoid arm: hydrocortisone 2.75 uM co-treatment, compound 5 µM.
The mark [3] stands for this setting: glucocorticoid arm: hydrocortisone 2.75 uM pre-treated 2 days and continued, compound 1 µM.
[4] abbreviates: glucocorticoid arm: hydrocortisone 2.75 uM pre-treated 2 days and continued, compound 5 µM.
Setting [5] is: glucocorticoid arm: vehicle, compound 1 µM.
Where [6] appears, read: glucocorticoid arm: vehicle, compound 5 µM.
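Note: CTB read-out in 384-well plates, mean of triplicate wells, normalised per plate against 1 µM phenylarsine oxide and 0.1% DMSO, compounds added 24 h after seeding.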

For `Cc1nc(N=Nc2ccc(S(=O)(=O)O)cc2S(=O)(=O)O)c(COP(=O)(O)O)c(C=O)c1O`, the normalised cell viability was found to be 0.989 ± 0.013 under setting [1]; 0.995 ± 0.022 under setting [2]; 1.02 ± 0.057 under setting [3]; 0.9833 ± 0.0087 under setting [4]; 0.993 ± 0.0062 under setting [5]; 0.9903 ± 0.0046 under setting [6].
Turning to `Cc1ccc(O)c([C@H](CCN(C(C)C)C(C)C)c2ccccc2)c1` [Tolterodine tartrate], the normalised cell viability amounted to 0.989 ± 0.009 under setting [1]; 0.956 ± 0.025 under setting [2]; 0.974 ± 0.026 under setting [3]; 0.955 ± 0.014 under setting [4]; 1 ± 0.0087 under setting [5]; 0.997 ± 0.012 under setting [6].
`CCN1CCCC1CNC(=O)c1cc(S(N)(=O)=O)ccc1OC` (racemic) [(±)-Sulpiride]: the normalised cell viability is, setting by setting: under setting [1], 0.998 ± 0.012; under setting [2], 0.983 ± 0.015; under setting [3], 1 ± 0.013; under setting [4], 0.979 ± 0.015; under setting [5], 0.9903 ± 0.0091; under setting [6], 1.001 ± 0.0081.
For `O=c1cc(CN2CCOCC2)occ1OCCCCCSc1ccnc2cc(C(F)(F)F)ccc12`, the normalised cell viability runs as follows: under setting [1], 0.965 ± 0.014; under setting [2], 0.915 ± 0.015; under setting [3], 0.935 ± 0.029; under setting [4], 0.907 ± 0.043; under setting [5], 0.991 ± 0.011; under setting [6], 0.947 ± 0.013.
Take `COC1=C(OC)C(=O)c2ccccc2C1=O` [2,3-Dimethoxy-1,4-naphthoquinone]: the normalised cell viability came to 0.994 ± 0.01 under setting [1]; 0.905 ± 0.047 under setting [2]; 0.994 ± 0.0066 under setting [3]; 0.956 ± 0.01 under setting [4]; 0.997 ± 0.0027 under setting [5]; 0.8913 ± 0.0032 under setting [6].
For `CCOc1ccc(Cc2cc([C@@H]3O[C@H](CO)[C@@H](O)[C@H](O)[C@H]3O)ccc2Cl)cc1` [Dapagliflozin], the normalised cell viability turned out to be 1.01 ± 0.016 under setting [1]; 1.02 ± 0.026 under setting [2]; 1.02 ± 0.015 under setting [3]; 1.04 ± 0.017 under setting [4]; 1.001 ± 0.0081 under setting [5]; 1 ± 0.011 under setting [6].
Take `CN(C)CCC(c1ccccc1)c1ccccn1` (centres undefined) [Pheniramine maleate]: the normalised cell viability reads like this: under setting [1], 0.975 ± 0.002; under setting [2], 0.99 ± 0.018; under setting [3], 1 ± 0.026; under setting [4], 0.984 ± 0.014; under setting [5], 0.964 ± 0.002; under setting [6], 0.959 ± 0.012.
With `Cn1cc(/C=C/C(=O)c2cccc(F)c2)cc1/C=C/C(=O)NO`, the normalised cell viability under setting [1] is 0.983 ± 0.026; the normalised cell viability under setting [2] is 1.01 ± 0.011; the normalised cell viability under setting [3] came out at 0.99 ± 0.01; the normalised cell viability under setting [4] is 1.01 ± 0.013; the normalised cell viability under setting [5] came to 0.9943 ± 0.009; the normalised cell viability under setting [6] turned out to be 0.984 ± 0.014.
Regarding `Nc1nccc2c1ncn2C1C=C(CO)C(O)C1O` (centres undefined) [3-Deazaneplanocin A (DZNeP)], the normalised cell viability is, setting by setting: under setting [1], 0.889 ± 0.023; under setting [2], 0.894 ± 0.016; under setting [3], 0.884 ± 0.029; under setting [4], 0.898 ± 0.018; under setting [5], 0.95 ± 0.0046; under setting [6], 0.703 ± 0.013.
In the case of `COc1nc(C)cnc1NS(=O)(=O)c1cccnc1-c1ccc(-c2nnco2)cc1` [Zibotentan (ZD4054)], the normalised cell viability was 1.01 ± 0.013 under setting [1]; 1 ± 0.021 under setting [2]; 1.007 ± 0.0058 under setting [3]; 1.03 ± 0.036 under setting [4]; 1.007 ± 0.0058 under setting [5]; 1.007 ± 0.0058 under setting [6].
In the case of `Cn1cc(C2=C(c3cn(CCCSC(=N)N)c4ccccc34)C(=O)NC2=O)c2ccccc21` [Ro 31-8220 Mesylate], the normalised cell viability was determined as 0.998 ± 0.013 under setting [1]; 0.125 ± 0.013 under setting [2]; 0.973 ± 0.036 under setting [3]; 0.297 ± 0.087 under setting [4]; 1.013 ± 0.0058 under setting [5]; 0.0242 ± 0.0022 under setting [6].
With `Nc1ccccc1NC(=O)CCCCCCC(=O)Nc1ccccc1`, the normalised cell viability came to 1 ± 0.016 under setting [1]; 1.03 ± 0.017 under setting [2]; 1 ± 0.014 under setting [3]; 1.025 ± 0.0084 under setting [4]; 1.002 ± 0.0061 under setting [5]; 1.008 ± 0.0088 under setting [6].
Take `N[C@@H](CC(=O)N1CCn2c(nnc2C(F)(F)F)C1)Cc1cc(F)c(F)cc1F` [Sitagliptin phosphate monohydrate]: the normalised cell viability runs as follows: under setting [1], 0.9863 ± 0.0025; under setting [2], 1.013 ± 0.0058; under setting [3], 0.9993 ± 0.0011; under setting [4], 1.01 ± 0.019; under setting [5], 0.9977 ± 0.004; under setting [6], 1.007 ± 0.0058.
`CC1(C)C(=O)N(CCN2CCC(C(=O)c3ccc(F)cc3)CC2)c2ccccc21` [LY-310,762 hydrochloride]: the normalised cell viability under setting [1] is 0.9993 ± 0.0011; the normalised cell viability under setting [2] is 0.965 ± 0.02; the normalised cell viability under setting [3] is 1.002 ± 0.0068; the normalised cell viability under setting [4] was 1.05 ± 0.074; the normalised cell viability under setting [5] stood at 0.988 ± 0.01; the normalised cell viability under setting [6] is 1.01 ± 0.02.
With `CC(C)(C)OC(=O)N[C@H]1CCCCC/C=C\[C@@H]2C[C@@]2(C(=O)NS(=O)(=O)C2CC2)NC(=O)[C@@H]2C[C@@H](OC(=O)N3Cc4cccc(F)c4C3)CN2C1=O` [Danoprevir], the normalised cell viability under setting [1] amounted to 0.997 ± 0.011; the normalised cell viability under setting [2] came out at 1.02 ± 0.017; the normalised cell viability under setting [3] amounted to 1 ± 0.024; the normalised cell viability under setting [4] is 1.03 ± 0.01; the normalised cell viability under setting [5] was found to be 1.002 ± 0.0076; the normalised cell viability under setting [6] amounted to 1.007 ± 0.0058.
Regarding `NC(=O)Nc1sc(-c2ccc(F)cc2)cc1C(N)=O`, the normalised cell viability was 0.737 ± 0.051 under setting [1]; 0.483 ± 0.002 under setting [2]; 0.8183 ± 0.0025 under setting [3]; 0.621 ± 0.027 under setting [4]; 0.907 ± 0.012 under setting [5]; 0.322 ± 0.015 under setting [6].
As to `CCCC(=O)Nc1ccc(OCC(O)CNC(C)C)c(C(C)=O)c1` (centres undefined) [Acebutolol HCl], the normalised cell viability by setting is: under setting [1], 1.01 ± 0.01; under setting [2], 1.02 ± 0.025; under setting [3], 0.999 ± 0.028; under setting [4], 1.03 ± 0.032; under setting [5], 0.999 ± 0.001; under setting [6], 0.9927 ± 0.0029.
As to `N=C(N)N1CCc2ccccc2C1` [Debrisoquin sulfate], the normalised cell viability turned out to be 0.9857 ± 0.008 under setting [1]; 0.937 ± 0.015 under setting [2]; 0.991 ± 0.0061 under setting [3]; 0.951 ± 0.011 under setting [4]; 0.9887 ± 0.0057 under setting [5]; 0.974 ± 0.011 under setting [6].
Take `O=C(O)Cc1ccc(O)c(O)c1` [3,4-Dihydroxyphenylacetic acid]: the normalised cell viability under setting [1] was determined as 1.007 ± 0.0058; the normalised cell viability under setting [2] is 0.991 ± 0.0046; the normalised cell viability under setting [3] was found to be 1.002 ± 0.0076; the normalised cell viability under setting [4] stood at 0.989 ± 0.011; the normalised cell viability under setting [5] was 0.987 ± 0.0052; the normalised cell viability under setting [6] was 0.9853 ± 0.0038.
In the case of `CCCCC1C(=O)N(c2ccccc2)N(c2ccccc2)C1=O` [Phenylbutazone], the normalised cell viability by setting is: under setting [1], 0.984 ± 0.0044; under setting [2], 0.998 ± 0.02; under setting [3], 1.04 ± 0.07; under setting [4], 0.9653 ± 0.0055; under setting [5], 0.994 ± 0.0072; under setting [6], 0.987 ± 0.012.
As for `N=C(N)SCCN` [2-(2-Aminoethyl)isothiourea dihydrobromide], the normalised cell viability came out at 0.9887 ± 0.0042 under setting [1]; 1 ± 0.019 under setting [2]; 1.006 ± 0.0063 under setting [3]; 1.004 ± 0.0085 under setting [4]; 0.9967 ± 0.0035 under setting [5]; 1.003 ± 0.0058 under setting [6].
With `COc1cc2ncnc(Nc3ccc(F)c(Cl)c3)c2cc1NC(=O)/C=C/CN1CCCCC1`, the normalised cell viability runs as follows: under setting [1], 0.922 ± 0.029; under setting [2], 0.874 ± 0.021; under setting [3], 0.94 ± 0.016; under setting [4], 0.935 ± 0.011; under setting [5], 0.803 ± 0.0092; under setting [6], 0.798 ± 0.025.
With `NS(=O)(=O)C#Cc1ccccc1` [Pifithrin-mu], the normalised cell viability by setting is: under setting [1], 1.02 ± 0.01; under setting [2], 1.04 ± 0.015; under setting [3], 0.875 ± 0.28; under setting [4], 1.02 ± 0.011; under setting [5], 1.027 ± 0.0058; under setting [6], 0.738 ± 0.027.
Take `Nc1c(S(=O)(=O)O)cc(Nc2ccc(Nc3nc(Cl)nc(Nc4cccc(S(=O)(=O)O)c4)n3)c(S(=O)(=O)O)c2)c2c1C(=O)c1ccccc1C2=O` [Reactive Blue 2]: the normalised cell viability is, setting by setting: under setting [1], 1 ± 0.01; under setting [2], 1.02 ± 0.01; under setting [3], 1.02 ± 0.021; under setting [4], 0.987 ± 0.021; under setting [5], 0.9857 ± 0.0023; under setting [6], 0.982 ± 0.0036.
